Test results published in PubChem BioAssay AID686978 (National Center for Advancing Translational Sciences (NCATS), 2013).
Several values for one entry are separate records, joined by “and”; a condition that tells them apart may be missing. Identical values can stand only once. The whole screen tested about 420,000 compounds, of which about 64,000 (15%) were called active. The inconclusive results got no clear call from the source; some entries with a clear call stand among them for comparison. The call rests on the fitted dose curve; in most records, active means well fitted inhibition curve with a large enough effect; inconclusive means small, poorly fitted or top-dose-only effect; inactive means flat fitted curve, though single readings scatter. Potencies of inconclusive entries are doubtful fits and often do not repeat.

Assay: qHTS for Inhibitors of human tyrosyl-DNA phosphodiesterase 1 (TDP1): qHTS in cells in absence of CPT; further: nearly all actives have a fitted effect of over 55% in size
Details: DT40 Tdp1-/- hTDP1 cells, no CPT, ATP luminescence, 48 h; activity change, negative = growth inhibition: at 46.2 µM (top of the series) unless noted
In short: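 Growth of hTDP1-complemented DT40 Tdp1-knockout cells is measured by ATP luminescence after at least 48 hr compound exposure at 37 °C, with DMSO substituting for the 20 nM CPT used in the parallel screen.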
On the % scale 0 is the no-effect control and ±100 the full control effect; potency means the concentration at half of the fitted maximal effect; tags describe the fitted curve by direction and shape.

Row | SMILES | Potency | activity change, negative = growth inhibition
1 | C[C@@H](NC(=O)c1nc[nH]c1C(=O)N[C@H](C)c1ccccc1)c1ccccc1 | inconclusive: 16.4 µM [inhibitor, single point] | –
2 | CCOC(=O)Cc1cc(=O)[nH]c(Nc2nc3ccccc3o2)n1 | inconclusive: 29.1 µM [inhibitor, single point] | –
3 | O=C(O)CCCN1C(=O)C2C3CCC(C3)C2C1=O (stereo not given) | – | inactive: 1.2%
4 | CC(C)Oc1cccc(C(=O)N/N=C/c2coc3ccccc3c2=O)c1 | – | inactive: 12.2%
5 | CCOc1ccc(N2CC(C(=O)Nc3ccccc3OC)CC2=O)cc1 (stereo not given) | inconclusive: 0.0184 µM [inhibitor, full curve, poor fit] | –
6 | CCn1cc(CCC(=O)NCc2ccc(F)cc2)c2ccccc21 | inconclusive: 29.1 µM [inhibitor, single point] and inconclusive: 32.6 µM [inhibitor, single point] | –
7 | CS(=O)(=O)c1ccc(NC(=O)c2ccc3c(c2)S(=O)(=O)N=C2CCCCCN23)cc1 | – | inactive: 6.64%
8 | Cc1ccc([C@H]2Nc3ccc(S(=O)(=O)Nc4cccc(Cl)c4C)cc3[C@H]3C=CC[C@H]32)cc1 | inconclusive: 29.1 µM [inhibitor, single point] | –
9 | COc1ccccc1-c1cc(C(F)(F)F)nc(N2CCN(c3ccccc3)CC2)n1 | inconclusive: 16.4 µM [inhibitor, partial curve, poor fit] | –
10 | Cc1ccc(C)c(NC(=O)c2ccccn2)c1 | – | inactive: -16.2%
11 | Fc1cccc(Cl)c1CSc1ccc(-c2cccnc2)nn1 | inconclusive: 23.1 µM [inhibitor, partial curve, poor fit] | –
12 | CNC[C@@H](CC1CCCCC1)NC[C@H](CC(C)C)NCCc1cccc(C(F)(F)F)c1 | active: 5.17 µM | –
13 | COc1cc(OC)c(OC)cc1CN(C)CCc1ccccn1 | – | inactive: -14.6%
14 | Clc1nc(Cl)nc(-c2cn(-c3ccccc3)c3ccccc23)n1 | – | inactive: -6.85%
15 | CCOc1ccc(N2C(=O)/C(=C\c3ccc(OC)c(O)c3)S(=O)(=O)C2c2cccc([N+](=O)[O-])c2)cc1 (stereo not given) | inconclusive: 13 µM [inhibitor, partial curve] | –
16 | Cn1c(C(=O)NCCCN2CCN(c3ccccc3F)CC2)cc2c(=O)n(C)c3ccccc3c21 | inconclusive: 25.9 µM [inhibitor, single point] | –
17 | O=C(c1cc(C2CC2)on1)N1CCCC(N2CCN(c3cccc(C(F)(F)F)c3)CC2)C1 (stereo not given) | inconclusive: 23.1 µM [inhibitor, partial curve, poor fit] | –
18 | CC(C)N(Cc1ccccc1)C(=O)COC(=O)/C=C/c1cnc2ccccc2n1 | – | inactive: -26.1%

Row | SMILES | Potency | activity change, negative = growth inhibition
19 | CC(C)=CC1C(C(=O)NCCOc2ccccc2)C1(C)C (stereo not given) | inconclusive: 29.1 µM [inhibitor, single point] | –
20 | Cn1cccc1Cc1nnc(SCC(=O)Nc2ccc(F)cc2F)n1-c1ccc(F)cc1 | inconclusive: 25.9 µM [inhibitor, single point] | –
21 | Cc1ccc(Nc2nnc(-c3ccc(C)c(S(=O)(=O)N4CCN(C)CC4)c3)c3ccccc23)c(C)c1 | active: 6.51 µM | –
22 | Cc1ccc(OCCN2CCN(C(=O)CCC(=O)Nc3nnc(C)s3)CC2)cc1 | – | inactive: -4.65%
23 | CCOC(=O)C1CCCN(C(=O)c2ccccc2SCCOC)C1 (stereo not given) | – | inactive: -3.52%
24 | Cc1ccc(C)c(COC(=O)c2cccc(S(=O)(=O)N3CCCC3)c2)c1 | inconclusive: 25.9 µM [inhibitor, single point] | –
25 | COc1ccccc1C(=O)NCCC(=O)Nc1ccc(S(=O)(=O)N2C(C)CCCC2C)cc1 (stereo not given) | inconclusive: 29.1 µM [inhibitor, single point] | –
26 | Cc1noc(C)c1COC(=O)c1ccc(F)c(S(=O)(=O)N2CCCCC2)c1 | inconclusive: 25.9 µM [inhibitor, single point] | –
27 | CCOc1ccccc1CNC(=O)C1CCN(C2=NS(=O)(=O)C(c3ccc(C)c(C)c3)=C2C)CC1 | – | inactive: -15.6%
28 | CCOc1ccccc1NC(=O)c1ccc2ccccc2c1 | inconclusive: 29.1 µM [inhibitor, single point] | –
29 | COc1ccc(OC)c(NC(=O)Cn2cnc3sc(C)c(S(=O)(=O)N4CCN(c5ccccc5OC)CC4)c3c2=O)c1 | inconclusive: 11.6 µM [inhibitor, partial curve] | –
30 | O=C(c1cc(COc2ccc3ncccc3c2)on1)N1CCC(O)CC1 | active: 8.2 µM | –
31 | O=C(N=C1SC2CS(=O)(=O)CC2N1c1cc(Cl)ccc1Cl)C1CC1 (stereo not given) | inconclusive: 29.1 µM [inhibitor, single point] | –
32 | COc1ccc(NC(=O)c2ccc3c(=O)n4nc(Nc5cc(C)ccc5C)sc4nc3c2)cc1 | active: 5.8 µM | –
33 | Cc1ccccc1C(=O)NC1CCN(CC(=O)N2CCCCC2C)CC1 (stereo not given) | – | inactive: 7%
34 | O=C(O)c1cnn(-c2ccccc2)c1C(F)(F)F | – | inactive: -0.458%
35 | CC(C)c1ccccc1NC(=O)COC(=O)Cc1cccc(C(F)(F)F)c1 | inconclusive: 29.1 µM [inhibitor, single point] | –
